Laboratory results published in PubChem BioAssay AID652106 (National Center for Advancing Translational Sciences (NCATS), 2013).
In all, about 370,000 compounds went through this assay and about 500 (0.14%) were called active. Inconclusive means that the source gave no clear call. Such entries were picked first, then a sample of the others. The call rests on the fitted dose curve; in most records, active means well fitted activation curve with a large enough effect; inconclusive means small, poorly fitted or top-dose-only effect; inactive means no such curve, though single readings can be large or run the other way. A potency beside an inconclusive call is a rough fit, not a confirmed value.

test: qHTS of alpha-syn Inhibitors; conditions: Yeast expressing alpha-synuclein, BacTiter-Glo, 24 h; Potency: growth rescue unless noted; growth rescue (activation): at 46.1 µM (top of the series) unless noted; further: nearly all actives have a fitted effect of over 65% in size; on growth rescue (activation): % of control where 0% means no effect
Outline: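 Rescue of yeast growth: cells expressing toxic alpha-synuclein, induced in galactose at OD600 0.02, incubated with compound 24 h at 30 C. ATP luminescence quantified growth; inhibitors of toxicity appear as activators.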
Potency means the concentration at half of the fitted maximal effect; tags describe the fitted curve by direction and shape.

SMILES | Potency | growth rescue (activation)
CCOC(=O)Nc1ccc2c(C)cc(=O)oc2c1 | inactive | –
OCCC1CN(CCCc2ccccc2)CCN1Cc1ccc(F)cc1 (stereo not given) | inactive | –
Cc1ccc(C)c(S(=O)(=O)NCCOc2nc(NC(C)C)nc(NC(C)C)n2)c1 | inconclusive: 5.62 µM [activator, single point] | –
N#C/C(=C\c1ccccc1OCc1ccc(C(=O)O)cc1)c1ccccc1 | inconclusive: 35.5 µM [activator, single point] | –
O=[N+]([O-])c1ccc(/C=N/Nc2nc(N3CCCC3)nc(N3CCCC3)n2)o1 | inconclusive: 11.2 µM [activator, single point] | –
CCOc1ccc(S(=O)(=O)NCCC(=O)N2CC=C(c3ccccc3)CC2)cc1 | inconclusive: 12.6 µM [activator, single point] | –
CCc1cc(C(=O)NNC(=S)NC(C)c2ccccc2)cs1 (stereo not given) | inactive | –
COc1ccc(OCc2nn3c(-c4ccco4)nnc3s2)cc1 | inactive | –
COc1ccc(N=Cc2c(O)[nH]c3ccccc23)cc1OC | inconclusive: 35.5 µM [activator, single point] | –
O=C(NCCC1=CCCCC1)C(c1ccccc1)c1ccccc1 | inactive | –
O=C(/C=C/c1ccccc1)OCN1C(=O)c2ccccc2C1=O | inconclusive: 12.6 µM [activator, single point] | –
COc1cccc(-c2cc3nc4c(c(N5CCC6(CC5)OCCO6)n3n2)CCCC4)c1 | inconclusive: 8.91 µM [activator, partial curve, poor fit] | –
CN(c1ccccc1)S(=O)(=O)c1cc(C(=O)c2nccn2C)ccc1Cl | inconclusive: 35.5 µM [activator, single point] | –
CC(C)(C)c1ccc(C(=O)N2[C@H](COCc3ccccc3)C=CS2(=O)=O)cc1 | inactive | –
CCOC(=O)c1cn(CC(=O)Nc2ccc(C)cc2)nn1 | inconclusive: 28.2 µM [activator, single point] | –
Cc1ccc(-c2cnc3c(c2)C(=O)N([C@H](C)CO)C[C@@H](C)[C@@H](CN(C)C(=O)Cc2ccccc2)O3)cc1 | inconclusive: 5.62 µM [activator, single point] | –
C[C@@H](c1ccccc1)N1C[C@H](COCc2ccccc2)Oc2cc(N3CC[C@@H](O)C3)ccc2S1(=O)=O | inconclusive: 20 µM [activator, single point] | –
N#Cc1ccc(-c2csc(NC(=O)c3ccc(N4C(=O)CCC4=O)cc3)n2)cc1 | inconclusive: 35.5 µM [activator, single point] | –
O=S(Cc1ccccc1)CC(O)(c1ccc(Cl)cc1)c1ccc(Cl)cc1 (stereo not given) | inconclusive: 31.6 µM [activator, single point] | –
CC1N(O)C(c2ccc(Cl)cc2Cl)N(O)C1(C)C (stereo not given) | inactive | –
Cn1c(=O)c2c(-c3ccccc3)n(-c3cccc(Br)c3)cc2n(C)c1=O | inconclusive: 3.55 µM [activator, single point] | –
Cc1cccc(NC(=O)c2cc([N+](=O)[O-])ccc2Cl)c1O | inactive | –
CCCc1n[nH]c(=S)n1Cc1ccco1 | inactive | –
COc1ccc(NC(=O)CN2C(=O)C(=O)N(C3CCCC3)C2=O)c(OC)c1 | inconclusive: 31.6 µM [activator, single point] | –

SMILES | Potency | growth rescue (activation)
Cc1cccc2nc(-c3ccco3)c(Nc3ccc4c(c3)OCCO4)n12 | inactive | –
O=C(c1ccco1)N1CCN(c2c([N+](=O)[O-])nn(-c3ccc(Cl)cc3)[n+]2[O-])CC1 | inactive | –
Cc1n[nH]c(C)c1S(=O)(=O)N1CCCC(C(=O)N2CCN(c3ccc(Cl)cc3)CC2)C1 (stereo not given) | inactive | –
Nc1ccccc1SC(CC(=O)c1ccccc1)c1cccc([N+](=O)[O-])c1 (stereo not given) | inactive | –
CCN(C(=O)CCS(=O)(=O)c1cc2c(cc1C)NC(=O)CO2)c1cccc(C)c1 | inconclusive: 5.62 µM [activator, single point] | –
Cc1nc(-c2ccccn2)nc(SCC(=O)c2ccc(F)cc2)c1Cl | inconclusive: 35.5 µM [activator, single point] | –
Cc1nc2ccc(NS(=O)(=O)c3c(F)cc(F)cc3Br)cc2s1 | inconclusive: 31.6 µM [activator, single point] | –
COc1ccc([N+](=O)[O-])cc1NC(=O)C(C)OC(=O)Cc1ccc(OC)c(OC)c1 (stereo not given) | inactive | –
O=C(O)CC1(c2ccc(F)cc2)C2CC3CC(C2)CC1C3 (stereo not given) | inconclusive: 35.5 µM [activator, single point] | –
Cc1ccc2c(c1)c(C)c(C)n2CC(O)Cn1nc(C)c(Br)c1C (stereo not given) | inconclusive: 25.1 µM [activator, single point] | –
O=C(CSc1ncc(-c2ccccc2)n1C1CCCC1)N1CCc2ccccc21 | inconclusive: 5.01 µM [activator, full curve] | –
N#Cc1cccc2c1-c1ccccc1/C2=N/NC(N)=S | inactive | –
Cc1c(CCC(=O)NCCCC(=O)O)c(=O)oc2cc3oc4c(c3cc12)CCCC4 | inconclusive: 22.4 µM [activator, single point] | –
CCCN(CC(=O)Nc1ccccc1OC)C(=O)c1ccc(S(=O)(=O)Nc2ccccc2OC)cc1 | – | inconclusive: 86.7% [activator] [at 1.84 µM]
Oc1c(C(c2ccccn2)N2CCOCC2)ccc2cccnc12 (stereo not given) | inconclusive: 22.4 µM [activator, single point] | –
O=C(CSc1ccc(Cl)cc1)N1CCN(c2ccc(Cl)cc2[N+](=O)[O-])CC1 | inconclusive: 15.8 µM [activator, single point] | –
CC[C@@H]1C(c2ccccc2)=NN(c2ccc(Br)cc2)[C@H]1C(=O)N1CCOC1=O | inconclusive: 15.8 µM [activator, single point] | –
Cc1cccc(NC(=O)CSc2nnc(NC(=O)C3CCC3)s2)c1 | inconclusive: 15.8 µM [activator, single point] | –
CC1CCN(C(=O)c2[nH]cnc2C(=O)N2CCN(C(=O)OC(C)(C)C)CC2)CC1 | inconclusive: 35.5 µM [activator, single point] | –
CCOC(=O)C1=CCN(S(=O)(=O)c2cccc(Cl)c2)C1c1ccc(Br)cc1 (stereo not given) | active: 20 µM | –
CC(=O)NNC(=S)NC(=O)c1ccccc1 | inconclusive: 35.5 µM [activator, single point] | –
CC(C)n1nc(C(=O)Nc2nnc(C3CC3)s2)c2ccccc2c1=O | inconclusive: 5.62 µM [activator, single point] | –
COc1ccc(S(=O)(=O)N2CCc3ccccc3C2)cc1OC | inconclusive: 14.1 µM [activator, single point] | –
Nc1sc(Cc2ccccc2)cc1C(=O)c1c(-c2ccccc2)[nH]c2ccccc12 | inconclusive: 8.91 µM [activator, partial curve] | –

SMILES | Potency | growth rescue (activation)
CCOc1ccc(CCNC(=O)CSc2nc3ncc(Cl)cc3[nH]2)cc1OCC | inactive | –
Cc1[nH]nc(N=CC2=C(O)CC(C)(C)CC2=O)c1-c1ccc(Cl)cc1 | inconclusive: 12.6 µM [activator, single point] | –
O=C(Nc1c2c(nn1-c1ccccc1)CS(=O)C2)c1ccc(S(=O)(=O)N2CCOCC2)cc1 (stereo not given) | inconclusive: 35.5 µM [activator, single point] | –
CC(=O)Oc1ccc(C(=O)COC(=O)CNC(=O)COc2ccccc2C)cc1 | inactive | –
Cc1cc2ccccc2c(=O)n1CC(=O)N(C)c1ccc(F)cc1 | inconclusive: 35.5 µM [activator, single point] | –
COc1ccc(C2CC(c3ccccc3F)=NN2c2ccc(S(N)(=O)=O)cc2)cc1 (stereo not given) | inconclusive: 28.2 µM [activator, single point] | –
O=C(CCSc1nnc(-c2ccncc2)o1)Nc1ccc(F)cc1 | inconclusive: 35.5 µM [activator, single point] | –
O=S(=O)(NCCc1csc(-c2cccnc2)n1)c1cccs1 | inactive | –
OC(c1cc(Cl)cc(Cl)c1)c1ncc(-c2ccccc2C(F)(F)F)[nH]1 (stereo not given) | inconclusive: 35.5 µM [activator, single point] | –
COc1cccc(NC(=O)CN2CCSc3ccccc32)c1 | inactive | –
OC(c1ccc(F)cc1)c1nc(-c2ccncc2)cs1 (stereo not given) | inactive | –
CC(C)(C)NC(=O)C(c1ccc(C(F)(F)F)cc1)n1c(=O)c(-c2cc3ccccc3[nH]2)nc2ccccc21 (stereo not given) | active: 7.08 µM | –
Cc1ccc2ccccc2c1C(O)c1ncc(-c2cccc(C(F)(F)F)c2)[nH]1 (stereo not given) | inconclusive: 17.8 µM [activator, single point] | –
O=C(CSC1=NNC(c2ccccn2)S1)Nc1cccc(Cl)c1 (stereo not given) | active: 8.91 µM | –
CCCCCCCCN1C(=O)[C@H](CC(=O)N2CCN(C(=O)c3ccco3)CC2)C[C@@]2(C(=O)OCC)CCCC=C12 | inconclusive: 28.2 µM [activator, single point] | –
Cc1ccsc1/C=C/c1ccc2cccc(O)c2n1 | inconclusive: 22.4 µM [activator, single point] | –
CC(=O)Nc1cc(-c2cccc(F)c2)cn2c(-c3ccccc3)cnc12 | inconclusive: 22.4 µM [activator, single point] | –
COc1cc2nc(N3CCCCC3)nc(NC3CC3)c2cc1OC | inactive | –
O=C(NC1CCN(Cc2ccc(F)cc2)CC1)c1ccccc1 | inactive | –
N/C(=N\OC(=O)c1ccc([N+](=O)[O-])cc1)c1ccccn1 | inconclusive: 35.5 µM [activator, single point] | –
COc1ccc(N2C(=O)C(Cl)=C(Oc3cccc(OC)c3)C2=O)cc1 | – | inconclusive: -77.9% [activator]
COc1cccc(/C=N/NC(=O)C(=O)NCc2ccco2)c1O | inconclusive: 20 µM [activator, single point] | –
